According to PMC4336329 (PLoS ONE, 2015):
Screen size: about 310,000 compounds; about 2,200 (0.71%) showed an effect of 50% or more. The effect is printed as a negative number. The list shows a part of the results.

Target: human ether-à-go-go-related gene (hERG) potassium channel (human, UniProt Q12809)
Test: primary screen, population patch clamp on CHO cells stably expressing hERG

Chain of human ether-à-go-go-related gene (hERG) potassium channel (Q12809 whole entry, looked up): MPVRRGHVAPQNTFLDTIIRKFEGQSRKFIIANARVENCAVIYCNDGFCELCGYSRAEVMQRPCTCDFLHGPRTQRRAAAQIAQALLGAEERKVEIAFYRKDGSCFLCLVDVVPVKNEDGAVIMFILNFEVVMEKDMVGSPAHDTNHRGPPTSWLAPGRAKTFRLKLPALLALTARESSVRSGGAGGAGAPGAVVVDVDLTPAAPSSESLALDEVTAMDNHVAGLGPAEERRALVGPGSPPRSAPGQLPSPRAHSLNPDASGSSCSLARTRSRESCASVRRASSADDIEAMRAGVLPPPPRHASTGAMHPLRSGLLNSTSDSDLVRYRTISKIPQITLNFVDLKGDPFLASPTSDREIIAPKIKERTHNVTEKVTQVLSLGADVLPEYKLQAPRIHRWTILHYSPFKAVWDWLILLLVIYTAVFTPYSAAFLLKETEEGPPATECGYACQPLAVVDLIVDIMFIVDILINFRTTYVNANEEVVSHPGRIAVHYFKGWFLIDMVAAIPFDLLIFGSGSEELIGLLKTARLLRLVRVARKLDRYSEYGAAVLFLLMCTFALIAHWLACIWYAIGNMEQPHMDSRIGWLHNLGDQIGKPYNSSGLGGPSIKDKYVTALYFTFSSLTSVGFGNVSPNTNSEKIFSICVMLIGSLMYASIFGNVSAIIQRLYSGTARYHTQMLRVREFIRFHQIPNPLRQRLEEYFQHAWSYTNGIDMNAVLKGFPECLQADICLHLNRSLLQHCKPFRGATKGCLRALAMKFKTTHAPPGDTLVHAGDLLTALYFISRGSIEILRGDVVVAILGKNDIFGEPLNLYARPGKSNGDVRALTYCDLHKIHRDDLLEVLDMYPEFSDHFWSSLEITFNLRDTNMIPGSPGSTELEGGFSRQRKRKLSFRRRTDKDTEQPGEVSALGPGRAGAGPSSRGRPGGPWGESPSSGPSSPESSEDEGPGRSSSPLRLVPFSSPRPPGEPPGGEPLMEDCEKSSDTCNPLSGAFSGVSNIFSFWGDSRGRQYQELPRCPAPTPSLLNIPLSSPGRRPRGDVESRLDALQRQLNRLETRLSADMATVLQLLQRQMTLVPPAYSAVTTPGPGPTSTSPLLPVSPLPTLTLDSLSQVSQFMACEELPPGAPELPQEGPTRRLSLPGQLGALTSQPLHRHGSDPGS

Structure (SMILES)	hERG current change (%, negative = inhibition) at 1uM [%]
CCCCCCSc1nc(O)c(C2OC(=O)c3c2ccc(OC)c3OC)c(=O)n1-c1ccccc1 (stereo not shown)	14.9
Cc1nn(-c2ccccc2)c(C)c1/C=C/C(=O)OCC(=O)N(C)C1CCS(=O)(=O)C1 (stereo not shown)	11.9
Cc1ccc(/C=C(\NC(=O)c2ccccc2)C(=O)NCC2CCCO2)o1 (stereo not shown)	6.53
COC(=O)C1C(O)=C(C=Nc2cccc3ccccc23)C(=O)CC1(C)C (stereo not shown)	5.11
O=C1OCCC1Sc1nc2ccccc2c(=O)n1-c1ccc(F)cc1 (stereo not shown)	10.7
O=C(NCCN1CCCCC1)c1cc(OCC(F)(F)F)ccc1OCC(F)(F)F	-17.2
COc1ccc(-n2c(SCC(=O)NCC3CCCO3)nc3c(c2=O)SC(C)C3)cc1 (stereo not shown)	-0.154
NC(=O)c1nsc(C(=O)N(CC(=O)NCc2ccccc2)c2cccc(F)c2)c1N	4.16
COC(=O)c1oc2ccc(Br)cc2c1NC(=O)CCCN1C(=O)c2ccccc2C1=O	17.7
CC(OC(=O)c1ccc2c(c1)OCCO2)C(=O)c1ccccc1 (stereo not shown)	10.3
CCOC(=O)C1=CC[C@H]2c3c(c4ccccc4n3C)C(=O)C1N2S(=O)(=O)c1ccc(C)cc1	3.67
C=CCn1c(SCC(=O)N2CCCC2)nc2scc(-c3cccs3)c2c1=O	-10.2
O=C(Nc1nnc(SCc2ccc(F)cc2)s1)C1Cc2ccccc2CN1C(=O)c1ccco1 (stereo not shown)	6.13
Cc1nc2nc(CSc3ccc(Cl)cc3)cc(=O)n2[nH]1	12.6
Cc1cccc(NC(NC(=O)Cc2ccccc2)C(Cl)(Cl)Cl)c1 (stereo not shown)	6.24
COCC(C)NC(=O)c1ccc2nc(-c3ccccc3)c(-c3ccccc3)nc2c1 (stereo not shown)	10.3
C[C@H](C(=O)CC(=O)OC(C)(C)C)[C@H](O)c1ccc(C(F)(F)F)cc1	14
COc1ccc(C(CC(=O)N2CCCC(C)C2)c2c(O)cc(OC)cc2OC)cc1 (stereo not shown)	10.7
CC1CCCC(C)N1C(=O)c1cc(F)c(F)cc1Cl (stereo not shown)	4.42
CC(C)CCN1C(Nc2ccccc2)=NC[C@@H]1Cc1ccccc1	-15
Cc1cc(C)n(-c2ccc(F)cc2)c(=O)c1C(=O)O	4.43
COc1ccc(CCNC(=O)C(CC(C)C)NC(N)=O)cc1 (stereo not shown)	0.238

Structure (SMILES)	hERG current change (%, negative = inhibition) at 1uM [%]
COc1ccc(NC(=O)C2CCCN2S(=O)(=O)c2ccc3c(c2)CCC(=O)N3)cc1 (stereo not shown)	-12.9
COC(=O)c1cc(NS(=O)(=O)c2cccc(Cl)c2)ccc1N1CCOCC1	9.53
COc1ccc(Cc2[nH]n3c(=O)cc(C(C)C)nc3c2-c2ccccc2)cc1	13.4
COc1ccc(CN(CC2CCC(C(=O)O)CC2)C(=S)Nc2cccc(C)c2)cc1 (stereo not shown)	3.91
COc1ccc(C(=O)N/N=C(\C)CC(=O)Nc2ccccn2)cc1OC	13.7
O=C(CSc1nc(-c2ccco2)cc(C(F)(F)F)n1)Nc1ccc(C(=O)N2CCCCC2)cc1	5.61
CC(C)CCNC(=O)CCn1nc(-c2ccc(Cl)cc2)ccc1=O	-5.4
CCOC(=O)C(C)(C)Sc1ncnc2nc[nH]c12	0.15
O=C(N/N=C/c1ccc(OC(=O)c2ccccc2)cc1)c1cccc(O)c1	10.4
CCc1cc(C(=O)OC)c(NC(=O)CCCC(=O)O)s1	13.7
Cc1ccn(CCC(=O)N2CCCC(CCC(=O)NCc3ccc(F)c(F)c3)C2)n1 (stereo not shown)	17
COc1ccc(CC(=O)Nc2oc(-c3ccccc3)c(-c3ccccc3)c2C#N)cc1OC	11.9
COc1cc(Br)cc2cc(C(=O)OC3CCN(C)CC3)c(=O)oc12	2.25
CCOc1ccc(CNC(=O)NS(=O)(=O)c2ccc(OC)cc2)cc1	16.5
CCOC(=O)C(O)(c1ccc(NC(=O)c2ccc(Cl)c(Cl)c2)cc1)C(F)(F)F (stereo not shown)	14.5
NC(=O)c1cc2c3ccccc3ccn2c1-c1ccccc1	6.93
O=C(Nc1cccc(-c2cn3c(n2)SCC3)c1)c1ccc2ccccc2n1	16.8
COc1ccccc1-c1c(C)nn2c(N3CCC4(CC3)OCCO4)cc(C)nc12	11.4
CC(C)Sc1nc(N2CCOCC2)c2c(c1C#N)CC(C)(C)N(C)C2	-5.18
O=C(CCc1ccccc1)Nc1cccc([N+](=O)[O-])c1	9.9
N#Cc1ccc(OCC(=O)n2cc(C(=O)c3cc(Cl)cc(Cl)c3O)cn2)cc1	8.88
CN(/N=C/c1ccc(N(C)C)cc1)C1=NS(=O)(=O)c2ccccc21	15

Structure (SMILES)	hERG current change (%, negative = inhibition) at 1uM [%]
COc1ccc(C(=O)NCCC2=CCCCC2)cc1OC1CCN(C(C)C)CC1	-7.41
COc1ccc(NC(=O)Cn2nc(C)c3ccccc3c2=O)cc1	10.5
Cc1cccc(OCCCC(=O)Nc2nc3ccccc3[nH]2)c1	6.69
CC1CCCCN1C(=O)/C(=C\c1ccccc1)c1ccccc1 (stereo not shown)	12
O=S(=O)(NC(=S)NC1CCCCC1)c1ccccc1	7.53
CC(=O)Nc1ccc(NC(=O)CSc2nnc(-c3ccc(NS(C)(=O)=O)cc3)n2C)cc1C	2.17
COCCn1c(-c2ccc(SC)cc2)nc2c1c(=O)[nH]c(=O)n2CC(C)C	-3.11
O=C(c1ccc(Br)cc1)c1coc2ccc(O)cc12	-0.508
COc1ccccc1OCC(=O)N1CCN(C(=O)c2ccco2)CC1	3.35
CN(C)c1cccc(C(=O)Nc2nc3ccccc3[nH]2)c1	14.7
N#C/C=C1\Sc2ccccc2C(=O)N1CC(=O)N1CCN(S(=O)(=O)c2ccccc2)CC1	0.0242
CCOC(=O)CCNC(=O)CCNC(=O)C(c1ccccc1)c1ccccc1	5.38
COC(=O)c1ccc(Cl)c(NC(C)=O)c1	9.23
CCNC(=O)NCCc1c[nH]c2ccc(Cl)cc12	-5.81
Cc1ccc(C(=O)Oc2cccnc2)cc1[N+](=O)[O-]	11
COc1ccc(N2CCN(CC(O)COCCOc3ccc(Br)cc3)CC2)cc1.Cl (stereo not shown)	-34.6
CC(=O)N/C(=C\c1cccc([N+](=O)[O-])c1)C(=O)NC(C)C	4.59
O=C(Nc1ccccc1)/C(=C\c1ccccc1)NC(=O)c1ccco1	12.1
CCCCc1nc2cc(C(=O)N3CCCCC3CCO)ccc2o1 (stereo not shown)	14.5
CSc1ccccc1NC(=O)c1ccc(C)o1	-6.12
CC(C)C(=O)N1CCN(c2ccc(NC(=O)c3cccs3)cc2Cl)CC1	11.2
COC(=O)c1sccc1NC(=S)Nc1ccccc1	-2.05

Structure (SMILES)	hERG current change (%, negative = inhibition) at 1uM [%]
CCOc1cc(C2c3c(oc4ccccc4c3=O)C(=O)N2c2nccs2)ccc1O (stereo not shown)	11.3
Cc1cc(C(=O)OCC(=O)c2ccc(Br)s2)no1	1.95
Cc1ccc(S(=O)(=O)N2CCC(c3nnc(SCCN4CCCC4)n3C)CC2)cc1	18.1
Cc1ccc(-c2csc3ncn(CC(=O)O)c(=O)c23)cc1C	22.2
COc1ccc(NC(=O)C2CCN(c3nc(C)nc4c3CCC4)CC2)cc1	-9.37
Cc1ccc(C)c2c1[nH]c1ccccc12	16.6
Cc1ccc(C)c(S(=O)(=O)N2CCN(Cc3cc4c(cc3O)OCO4)CC2)c1	8.05
Cc1ccc(NC(=O)CSc2nnc(N)s2)c([N+](=O)[O-])c1	4.78
FCCCOc1ccc(/C=N/OCc2ccc(Cl)cc2)cc1	0.266
O=C1CCN(Cc2ccc(O)cc2)CCN1[C@H](CO)Cc1ccccc1	-2
Cc1cc(N2CCN(c3ccc(F)cc3)CC2)n2ncnc2n1	-14.8
COc1cc(OC)c(OC)cc1/C=C1\CCC(C2CCCC2)C1=O (stereo not shown)	-0.948
COc1ccccc1CN(Cc1cccnc1)S(=O)(=O)c1ccc(-n2cnnn2)c(OC)c1	-8.7
O=Cc1c(N2CCC3(CC2)OCCO3)nc2ccccn2c1=O	6.93
CSc1ccccc1NC(=O)CSCc1nc2sc(C)c(C)c2c(=O)[nH]1	7.38
COC(=O)c1ccc(C#Cc2ccccc2)o1	18.3
CCCOc1ccc(Cc2nc(N)nc(N)n2)cc1	15.6
CN(CC(=O)Nc1ccccc1C(F)(F)F)C(=O)CC1OC(=O)c2ccccc21 (stereo not shown)	9.22
NCC12CC3CC(C1)CC(CN)(C3)C2	4.9
COc1ccccc1CN(C)C(C)C(=O)Nc1cccc(C(C)=O)c1 (stereo not shown)	0.307
CC(C)(C)NC(=O)Cn1c(SCC(=O)NC2CC2)nc2ccccc21	5.13
N#Cc1ccccc1NC(=O)COC(=O)CCc1ccc(S(=O)(=O)N2CCCCC2)cc1	12.7
